Source: PubChem BioAssay AID602313 (National Center for Advancing Translational Sciences (NCATS), 2012)
The whole screen tested about 390,000 compounds, of which about 760 (0.19%) were called active. Not shown: some 3% with an inconclusive outcome. Calls come from the whole dose curve; as a rule, active = well fitted inhibition curve with a large enough effect; inconclusive = small, poorly fitted or top-dose-only effect; inactive = flat fitted curve, though single readings scatter. The entries are a selection whose mix differs from that of the whole data set.

Experiment: qHTS for Inhibitors of Vif-A3F Interactions: qHTS; note: nearly all actives have a fitted effect of over 65% in size; for activity, negative = active: % of control where 0% means no effect
Settings: HeLa A3F-eYFP + Vif (tagged APOBEC3F with the HIV-1 protein that degrades it), YFP fluorescence increase; series mostly up to 46.1 µM; activity, negative = active: at the top concentration
Text: The recent discovery and characterization of host restriction factors, which provide a potent defense to invading retroviruses, has provided new targets for antiviral drug development. APOBEC3G (A3G) and APOBEC3F (A3F) are potent cytidine deaminases that block HIV-1 replication; HIV-1 expresses the Vif protein, which counteracts A3G and A3F by binding to them and inducing their proteasomal degradation. The Vif-A3G and Vif-A3F interactions provide two potential targets for development of small molecules which can interfere with the ability of Vif to degrade A3G or A3F. […] To identify inhibitors that can interfere with Vif mediated degradation of A3G and A3F, we have developed Hela cell lines that stably express A3G or A3F tagged with eYFP at the C-terminal end (A3G-eYFP or A3F-eYFP, respectively) and Vif. In the absence of an inhibitor, Vif induces degradation of A3G-eYFP and A3F-eYFP, and the cells are not fluorescent. In the presence of an inhibitor, it is expected that Vif will be unable to degrade A3G-eYFP and/or A3F-eYFP, resulting in an increase in yellow fluorescence. In this assays Vif A3F was screened against the Molecular Library Small Molecule Repository (MLSMR). NIH Chemical Genomics Center [NCGC] NIH Molecular Libraries Probe Centers Network [MLPCN] MLPCN Grant: MH093245 Assay Submitter (PI): Vinay Pathak, National Cancer Institute
5 uL of 700 cells/well of A3F-YFP cells are dispensed into black, clear bottom plates. The plates are incubated overnight at 37 deg C. 23 nL of compounds are added by pintool. The plates are incubated overnight at 37 deg C and then read on the TTP Acumen (Ex 488/ Em 500-530).
Potency is the fitted concentration of half-maximal effect.

activity, negative = active, inactive:
CCOC(=O)C(Cc1ccc(NC(=O)/C(=C/c2ccccc2)NC(=O)c2ccccc2)cc1)N1C(=O)c2ccccc2C1=O (stereo not drawn) 6.59%
Cc1cn(-c2cc(C(=O)Nc3ccc(C)c(NC(=O)C(=O)c4c[nH]c5ccccc45)c3)cc(C(F)(F)F)c2)cn1 -9.18%
Cc1ccn2cc(C(=O)NCc3ccco3)nc2c1 19.2%
O=C(Nc1cccc2ccccc12)/C(=C/c1cccc([N+](=O)[O-])c1)NC(=O)c1cccs1 3.33%
Cc1cccc(NS(=O)(=O)c2ccc3[nH]c(=O)[nH]c3c2)c1C -7.71%
CC1CCC(C(C)C)C(OC(=O)Cn2c(-c3ccccc3)[n+](C)c3ccccc32)C1 (stereo not drawn) -9.99%
O=C(NCc1ccc(Cl)cc1)C1CCN(S(=O)(=O)c2cccc3nonc23)CC1 1.64%
COc1ccc(-c2cc(C(=O)Nc3cc(OC)cc(C(=O)Nc4cccc(C(F)(F)F)c4)c3)[nH]n2)cc1 -18.7%
Cc1ccc(Nc2nnc(SC/C(O)=C(\C#N)c3nc4ccccc4[nH]3)s2)c(C)c1 -29.8%
COc1ccccc1N1CCN(C(=O)CNC(=O)c2cn(-c3ccccc3OC)c(=O)c3ccccc23)CC1 30.2%
COc1ccc(CNC(=O)CCCn2c(=O)c3cccn3c3cccnc32)cc1 0.678%
O=C1CSC(=Nc2cccc(Cl)c2Cl)N1Cc1cccnc1 31%
CC(C)(C)NC(=O)[C@@H]1C[C@@H]2CCCC[C@@H]2CN1C[C@@H](O)[C@H](Cc1ccccc1)NC(=O)[C@H](CC(N)=O)NC(=O)c1ccc2ccccc2n1 -15.5%
[O-]/C(=C(\C(=S)Nc1cccc2ccccc12)[n+]1ccccc1)c1ccc2c(c1)OCCO2 -2.94%
CCOc1ccccc1NC(=O)Cn1nnc(C(=O)NCc2cccs2)c1N -14.1%
Cc1cc(/C=C2\NC(=S)NC2=O)c(C)n1-c1cccnc1 -18.5%

Potency, active:
Cc1coc(NC(=O)CSc2nc(-c3ccncc3)cc(C(F)(F)F)c2C#N)n1 11.2 µM
O=C(NCC1CCCO1)c1cccc2c1C(=O)c1ccc(N3CCC(Cc4ccccc4)CC3)cc1S2(=O)=O (stereo not drawn) 25.1 µM
COc1cc(/C=C2/SC(=Nc3ccc(O)cc3)NC2=O)ccc1O 25.1 µM
COc1cc2c3nnc(-c4ccc(F)cc4)c-3cn(Cc3ccccc3F)c2cc1OC 25.1 µM
CCOCCCNC(=O)/C(C#N)=C/c1ccc([N+](=O)[O-])o1 12.6 µM
COc1ccc(NCc2cc3cc4c(cc3n(CC(=O)Nc3cc(C)ccc3C)c2=O)OCCO4)cc1 12.6 µM
Cn1c(N/N=C/c2cc3ccccc3nc2Cl)nc2ccccc21 22.4 µM
